In all, about 340,000 compounds went through this assay and about 6,900 (2%) were called active. No stated cut-off is given here; in the data, active means inhibition above about 30%; inactive means below that, where a call was filed. The entries are a selection whose mix differs from that of the whole data set. Entries without a call were filed so in the source.

92 compounds from PubChem BioAssay AID485344 (National Center for Advancing Translational Sciences (NCATS), 2010) can be followed below.

This assay addresses D(2) dopamine receptor (Homo sapiens) (UniProt P14416). Description: HTS Assay for Allosteric Antagonists of the Human D2 Dopamine Receptor: Primary Screen for Antagonists. Further: 0% is about no effect. The note with it: HEK293 TREx D2 cells, calcium flux, dopamine EC80; at 10 µM; stronger effect = higher value. The method in brief: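 HEK293 T-REx D2 cells, tet-induced, calcium dye no-wash. Cpd pintool add, 180 s kinetic, then EC80 DA, 180 s kinetic. Ca flux read.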
Sequence of UniProt P14416 (P14416 whole entry, looked up): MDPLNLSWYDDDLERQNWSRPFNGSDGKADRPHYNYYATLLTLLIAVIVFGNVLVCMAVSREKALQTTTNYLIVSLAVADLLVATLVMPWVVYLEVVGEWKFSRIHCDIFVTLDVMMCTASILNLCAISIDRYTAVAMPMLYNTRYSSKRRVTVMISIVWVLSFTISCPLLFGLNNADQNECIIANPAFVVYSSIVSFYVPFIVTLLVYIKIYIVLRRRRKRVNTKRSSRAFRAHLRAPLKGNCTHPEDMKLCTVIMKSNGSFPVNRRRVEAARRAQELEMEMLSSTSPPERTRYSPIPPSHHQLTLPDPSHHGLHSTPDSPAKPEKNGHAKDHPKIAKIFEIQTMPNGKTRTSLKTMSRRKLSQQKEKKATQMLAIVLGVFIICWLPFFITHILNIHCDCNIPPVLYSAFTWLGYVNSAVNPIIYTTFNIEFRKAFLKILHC
For orientation: Calcium flux is commonly read through the fluorescence of an indicator in the cells.
In the case of `Cc1c2cnn(CC(=O)NCc3ccc(F)cc3)c(=O)c2c(C)n1Cc1ccccc1Cl`, the inhibition (commonly the relative decrease from the control value, in per cent) is -7.7%. To `COc1ccc(-c2nc(C)c(CCNC(=O)c3ccccc3Br)s2)cc1OC` belongs -0.0585%; to `CC(=O)N1CCCc2cc(S(=O)(=O)N3CCC(N(C)C(C)C)CC3)ccc21`, 13.7%; to `Cc1ccc(-c2c(C)n3c4c(=O)n(C)c(=O)n(C)c4nc3n2CCCO)cc1`, -15.5%. Consider `O=C(CSc1nc2c([nH]c3ccccc32)c(=O)n1-c1ccccc1)Nc1ccccc1F`, for which the inhibition was determined as 15%. On to `COc1ccc(C(=O)Nc2cccc(-c3nc4cccnc4s3)c2C)c(OC)c1`, for which the inhibition is -9.34%. In the case of `CCOC(=O)c1ccccc1NC(=O)Cn1c(=O)n(Cc2ccc(C(=O)NCc3ccc4c(c3)OCO4)cc2)c(=O)c2ccccc21`, the inhibition came out at 3.45%. For `CCOc1ccc(NC(=O)C2CCCN(S(=O)(=O)c3ccc(Br)s3)C2)cc1` (configuration not stated), the inhibition amounted to 2.63%. To `Cc1ccccc1NC(=O)N1CCC(CN2CCCC2)CC1` belongs -10.6%. To `Cc1ccc(OCC(=O)OCc2cc(=O)n3c(C)csc3n2)cc1` belongs -10.8%; to `CCC(=O)N1CCc2cc(S(=O)(=O)NC(Cc3ccccc3)C(=O)NCc3ccc(F)cc3)ccc21` (configuration not stated), -18.5%; to `CCc1cccc(-n2c(=O)c3cccnc3n2CC(=O)Nc2ccccc2C(=O)OC)c1`, -9.89%.

On to `Cc1ccc2oc(C(=O)Nc3sc4c(c3C(=O)NCc3ccccc3)CCCC4)cc(=O)c2c1`, for which the inhibition came out at 5.24%.

Take `CCOc1ccc(NC(=O)c2ccc3nc(Cc4ccccc4)oc3c2)cc1`: the inhibition came out at 10.8%. To `CCC1CN(C(=O)Nc2cc(OC)cc(OC)c2)c2ccccc2S1` (configuration not stated) belongs -7.07%; to `CN(C)S(=O)(=O)c1cccc(NC(=O)CCSc2ccc(Cl)cc2)c1`, active: 33.1%; to `COc1cccc(NC(=O)C2CCCN2S(=O)(=O)c2ccc3c(c2)n(C)c(=O)c(=O)n3C)c1` (configuration not stated), -6.66%.

For `COc1ccc(OC)c(NC(=O)c2nc(SCc3ccccc3F)ncc2Cl)c1`, the inhibition is -0.843%. For the compound `O=C(Cn1c(=O)oc2cc(S(=O)(=O)NCc3ccccc3)ccc21)N(CCO)Cc1ccccc1`, the inhibition was found to be 5.9%. To `CC1C(=O)N2CCCc3cc(S(=O)(=O)Nc4ccc(Br)cc4F)cc1c32` (configuration not stated) belongs -2.05%; to `CC1CCN(S(=O)(=O)c2ccc(S(=O)(=O)NCc3ccccc3)cc2)CC1`, active: 31%; to `CCOc1cc(-c2nnc(SCC(=O)NCc3ccc(C)cc3)nc2-c2ccc(OC)c(OCC)c2)ccc1OC`, 13.1%. To `CCCNC(=O)c1c2c(nc3ccccc13)C(=O)N(C1CCCCC1)C2` belongs 16.4%.

Regarding `CCCc1cc(=O)[nH]c2nnc(SCC(=O)Nc3cccc(C)c3)n12`, the inhibition is -17.5%.

For `Cc1cccn2c(=O)c(/C=C(\C#N)c3nc4ccccc4n3C)c(Oc3ccc(Cl)cc3)nc12`, the inhibition was -2.44%.

For `COc1cccc(-c2cc(C(=O)Nc3ccc(F)cc3)[nH]n2)c1`, the inhibition was -7.05%. To `CCNC(=O)c1ccc(-n2c(-c3ccccc3)cc3c2CCCCC3)cc1` belongs 1.82%; to `Cc1c(C(=O)Nc2cccc(C(F)(F)F)c2)oc2ccc(S(=O)(=O)N(C)C3CCCCC3)cc12`, 19.5%; to `O=C(CC1C(=O)N(c2ccccc2)C(=O)N1CCc1cccs1)Nc1ccc(Cl)cc1` (configuration not stated), 18.5%. Turning to `COc1ccc(OC)c(NC(=O)[C@H](Cc2ccccc2)N2Cc3ccccc3C2=O)c1`, the inhibition was -8.35%. To `Brc1ccc(Oc2nnnn2-c2ccccc2)cc1` belongs active: 44.7%. Take `COc1cccc(CNC(=O)CCc2c(C)nn(-c3ccc(N4CCOCC4)nn3)c2C)c1`: the inhibition was -12.2%. To `CC(=O)Nc1nonc1-c1nnc(SCc2ccc(C)cc2)n1C` belongs -18.8%; to `N#Cc1sc2nc(-c3ccccc3)cc(-c3ccco3)c2c1N`, active: 62.3%. To `COc1ccc(CN2CCN(S(=O)(=O)c3ccccc3)CC2)c(OC)c1` belongs -6.36%; to `CCn1cc(S(=O)(=O)c2ccc(C)cc2C)c(=O)c2cc(F)c(N3CCCC3)cc21`, 12.8%; to `Cc1ccc(CSc2nnc3[nH]c(=O)cc(C)n23)cc1`, -2.15%. The value for `CCCn1cc(S(=O)(=O)c2ccc(OC)cc2)c(=O)c2cc(F)c(N3CCCCCC3)cc21` was 3.22%; that for `CC(C)Oc1ccc(CNC(=O)C2CCCN(S(=O)(=O)c3ccc4c(ccn4C)c3)C2)cc1` (configuration not stated) was -27.4%. For the compound `CCCN1C(=O)C2(c3ccccc31)c1c(oc3cc(C)c(C)cc3c1=O)C(=O)N2CCCOC` (configuration not stated), the inhibition was found to be 10.1%. The value for `CCC(=O)N1c2ccccc2CC1C(=O)NCCc1ccc(OC)cc1OC` (configuration not stated) was 8.61%; that for `COc1ccc(S(=O)(=O)N(C)C)cc1NC(=O)COC(=O)c1nc2nccc(C)n2n1` was active: 40.4%.

Regarding `Cc1cc(C)cc(OCCSc2nc(-c3ccc(C(C)(C)C)cc3)nc3cc(=O)[nH]n23)c1`, the inhibition came to 7.31%.

Turning to `COC(=O)c1c(NC(=O)COc2ccc(OC)cc2)sc2c1CCC(C)C2` (configuration not stated), the inhibition came out at 7.57%. `COc1cc(NC(=O)CSc2ccc(-c3sc(-c4ccccc4)nc3C)nn2)cc(OC)c1`: the inhibition is 6.5%. To `CCN(CC)C(=O)c1sc2c(c1C)c(=O)n(CCc1ccccc1)c(=O)n2Cc1cccc(Cl)c1` belongs 6.43%. To `COc1ccccc1CNc1ccc(-c2nc(-c3cccc(C)c3)no2)cc1[N+](=O)[O-]` belongs 16.4%. For `CCCCOc1ccc(CN2C(=O)C(=O)c3cc(C)ccc32)cc1OC`, the inhibition worked out at 15.3%.

With `CC(C)c1ccc(NC(=O)CSc2n[nH]c(=O)n2-c2cccnc2)cc1`, the inhibition is active: 30.6%. The value for `CN(C)c1ccc(CNC(=O)c2ccc3c(c2)N(C)C(=O)C2CCCCN32)cc1` (configuration not stated) was 2.33%; that for `CCOc1ccccc1N1CC(c2nc3ccccc3n2CCCCOc2cc(C)ccc2C)CC1=O` (configuration not stated) was 1.26%; that for `COc1ccc(-n2nc(C(=O)NCc3ccc(F)cc3)c3c4ccccc4n(C)c3c2=O)cc1` was 14.8%. `CC1=C(c2ccc(C)c(C)c2)S(=O)(=O)N=C1N1CCC(C(=O)N2CCCCC2)CC1`: the inhibition stood at 6.64%. On to `CCOc1ccc(CNC(=O)CCc2cn(CC)c3ccccc23)cc1`, for which the inhibition was determined as 13.5%.

Take `CCc1ccc(NC(=O)C2CCN(S(=O)(=O)c3c(C)noc3/C=C\c3ccc(OC)cc3)CC2)cc1`: the inhibition is 11.8%. To `OC(COCc1cccs1)CN1CCN(c2cccc(Cl)c2)CC1` (configuration not stated) belongs active: 43.4%; to `O=C(NCCc1ccccc1)c1ccc(CSc2nc3ccncc3n2Cc2cccc(F)c2)cc1`, -5.78%. In the case of `COc1cc(C(=O)Nc2ccc(OCc3cc(=O)n4cccc(C)c4n3)cc2)cc(OC)c1OC`, the inhibition is -4.53%. `CCOC(=O)c1cnc2c(C)cc(C)cc2c1Nc1ccc(OCc2ccccc2)cc1`: the inhibition worked out at 1.41%.

As to `CCCCn1cc(S(=O)(=O)c2ccccc2)c(=O)c2cc(F)c(N3CCC(C)CC3)cc21`, the inhibition came to 2.1%.

Regarding `COc1cc(OC)cc(C(=O)NCC2CCCN(Cc3ccc(SC)cc3)C2)c1` (configuration not stated), the inhibition is active: 51.3%. Consider `COc1ccc(NC(=O)C2=C(C)Nc3ncnn3C2c2ccccn2)cc1` (configuration not stated), for which the inhibition was -6.63%. The value for `CC(=O)Nc1cccc(C(=O)OCC(=O)c2ccccc2Cl)c1` was active: 41.1%; that for `CCOC(=O)C1=C(C(F)(F)F)Nc2ncnn2C1c1cccc(OC)c1OC` (configuration not stated) was 6.92%. To `COc1ccc(O)c(CNn2c(-c3ccc(Br)cc3)nc3ccccc3c2=O)c1` belongs active: 49.9%. On to `COc1ccc(NC(=O)CN(C)S(=O)(=O)c2ccc3nc(C)sc3c2)cc1`, for which the inhibition was -22.8%.

For the compound `CC(C)CCNC(=O)c1cc(Sc2ccc(F)cc2F)nc2ccccc12`, the inhibition was found to be 0.461%. The value for `O=C(c1ccc2nc[nH]c2c1)N1CCc2ccccc2C1` was active: 35.1%; that for `COc1ccc(N2C(=O)CS(=O)(=O)C23C(=O)N(Cc2c(F)cccc2Cl)c2ccccc23)cc1` (configuration not stated) was 20.2%; that for `COc1ccc(/C=N/NS(=O)(=O)c2ccccc2)cc1OS(=O)(=O)c1ccc(C)cc1` was active: 31.6%. To `O=C(CCCCn1c(=O)c2ccccc2n(Cc2ccccc2F)c1=O)NCc1ccccc1Cl` belongs 20.8%. Turning to `COc1ccc(N(C)S(=O)(=O)c2cccc(C(=O)NCC(c3cccs3)N(C)C)c2)cc1` (configuration not stated), the inhibition is active: 46.1%.

As to `Cc1ccc(NC(=O)CSc2nc3ccc(NC(=O)CCc4ccccc4)cc3s2)c(C)c1`, the inhibition was -13.3%. The value for `CCN(CC)C(=O)C1=CC(c2ccc3c(c2)OCO3)=NS(=O)(=O)N1C` was 25.5%; that for `O=S(=O)(NCCc1nnc2ccc(SCc3c(F)cccc3Cl)nn12)c1ccccc1` was 0.192%. The value for `COC(=O)c1ccc(CN(Cc2ccc(OC)c(OC)c2)S(=O)(=O)c2cc(C(=O)Nc3cccc(C)c3)ccc2F)cc1` was 28.2%; that for `CCC(Oc1ccccc1)C(=O)Nc1ccc(OCc2cc(=O)n3ccc(C)cc3n2)cc1` (configuration not stated) was -4.7%; that for `CC(C)Oc1ccc(CNC(=O)c2ccccc2NC(=O)c2nsc3ccccc23)cc1` was 8.34%. To `CNS(=O)(=O)c1cn(CC(=O)N2CCN(c3cccc(Cl)c3)CC2)cc1S(=O)(=O)NC` belongs -8.29%; to `COC(=O)c1[nH]c2cccc(OC)c2c1NC(=O)CCN1CCN(c2ccccc2OC)CC1`, active: 83.3%; to `CCCCCn1c(Sc2ccccc2)nc2c1c(=O)[nH]c(=O)n2C`, active: 31.4%. On to `CCn1cc(C(=O)N2CCN(c3ccccc3OC)CC2)c(=O)c2cc(S(=O)(=O)N3CCC(C)CC3)ccc21`, for which the inhibition is 2.1%. As to `Cc1ccc(-n2ncc3c(N4CCCCCC4)ncnc32)cc1C`, the inhibition came to 5.39%. The value for `COc1ccccc1CNC(=O)c1ccc2c(c1)N(Cc1ccc(C)cc1)CCS2` was 2.11%; that for `CCc1ccccc1NC(=O)CN1C(=O)COc2ccc(S(=O)(=O)N3CCCCCC3)cc21` was 0.406%; that for `CCN(CC)S(=O)(=O)c1ccc2c(c1)N(CC(=O)NCC(C)c1ccccc1)C(=O)CO2` (configuration not stated) was -10.6%. Consider `CC(C)c1nnc(NC(=O)CCC(=O)Nc2ccc3cn[nH]c3c2)s1`, for which the inhibition was active: 60.6%.

Consider `Cc1c(C(=O)N2CCN(S(=O)(=O)c3ccccc3)CC2)oc2ccccc12`, for which the inhibition is active: 34.4%. To `O=C(NCc1ccc(F)cc1)C(=O)NCC(c1cccs1)S(=O)(=O)c1cccs1` (configuration not stated) belongs -22.2%; to `CCN(Cc1ccccc1)S(=O)(=O)c1ccc2[nH]c3c(c2c1)CCCCC3`, -5.75%. The value for `CN(Cc1ccccc1)c1ccc(-c2nc(-c3cccnc3)no2)cc1[N+](=O)[O-]` was 26.2%.

Take `CCOC(=O)c1cccc(NC(=O)c2nn(-c3ccc(OC)cc3)c(=O)c3c2c2ccccc2n3C)c1`: the inhibition was -1.97%.
